Measured values as given in PubChem BioAssay AID1454 (National Center for Advancing Translational Sciences (NCATS), 2008).
Out of some 130,000 compounds screened, about 550 (0.42%) were called active. About 4% were inconclusive and are not listed. Calls follow the shape of the dose curve; as a rule, active = well fitted inhibition curve with a large enough effect; inconclusive = small, poorly fitted or top-dose-only effect, or effect the other way; inactive = flat fitted curve, though single readings scatter. The list shows a part of the results, in another mix than the full data.

experiment: qHTS Assay for Inhibitors of the ERK Signaling Pathway using a Homogeneous Screening Assay; Stimulation with EGF; settings: HEK293-V1b, EGF-stimulated phospho-ERK AlphaScreen; activity change, negative = inhibition: at the top concentration; also: nearly all actives have a fitted effect of over 55% in size;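 as to activity change, negative = inhibition: plate controls were stimulated vehicle wells for no effect and unstimulated vehicle basal for full effect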
Source text: NIH Chemical Genomics Center [NCGC]
NIH Molecular Libraries Screening Centers Network [MLSCN]
Assay Submitter (PI): Dr. Wei Zheng, NCGC/NIH
The Ras/extracellular-signal-regulated kinase (ERK) mitogen activated protein (MAP) kinase signaling pathway (ERK1/2 cascade) plays a key role in transmitting signals from the cell surface to the nucleus (Nishida and Gotoh 1993; Chang and Karin, 2001). The cascade is initiated by the small G-protein Ras, which recruits Raf from the cytosol, where activation occurs. Alternatively, this pathway can be activated by elevating intracellular cAMP, or by activation of a receptor tyrosine kinase as epidermal growth factor receptor.
Activation of the ERK pathway is essential in increased cell division and cell survival. Sustained and constitutive activation of the ERK pathway, however, has been linked to uncontrolled cell proliferation, increased cell survival, and tumor progression. Thus, the ERK has been as an attractive target for cancer chemotherapy in the past few years (Sebolt-Leopold and Herrera, 2004). Given its physiological and pathological importance, assessment of ERK phosphorylation has been broadly performed in both basic research and drug discovery. Most assays for the measurement of ERK phosphorylation use the antibody-based detection methods, such as western blot and ELISA. These assays require multiple reagent additions with cell wash steps and are not suitable for high throughout screening.
The current cell-based ERK phosphorylation assay was performed using AlphaScreen platform. AlphaScreen is a two bead-based proximity-dependent chemical energy transfer luminescent assay platform. The assay reagents (ERK SureFire(TM) kit) were supplied from TGR BioSciences (Australia). In the presence of specific antibodies, phosphorylated ERK will bring "donor" and "acceptor" beads to a proximity range (<200 nm), and subsequently lead a chemical luminescent reaction upon exciting donor beads with 680 nm laser. To exclude the assay-related false positives, we used a biotinylated rabbit IgG to perform counter-screen. The biotinylated antibody mimics the phosphorylated ERK1/2 for bringing streptavidin coated beads and protein-A coated beads to a proximity range for the AlphaScreen detection.
NCGC Assay Protocol Summary:
HEK293 cells stably expressing type-1 vasopressin receptor (V1b) were maintained in DMEM medium (Invitrogen, Carlsbad, CA) at 37C under a humidified atmosphere containing 5% CO2 and 95% air. The medium contained 10% FBS, 2 mM L-glutamine, non-essential amino acid, pyruvate and 50 U/ml penicillin and 50 ug/ml streptomycin (Invitrogen). The aliquots of frozen cells were stored at -135C and used for the compound screening. All compounds were screened as titrations from 0.6 nM to 46 uM final concentration. Epidermal growth factor (EGF) was used to stimulate the ERK phosphorylation pathway. The ERK phosphorylation in cells was determined using an AlphaScreen assay kit provided by […]. Data were normalized to the controls for basal activity (DMSO only) and 100% activation (25 nM EGF). AC50 values were determined from concentration-response data modeled with the standard Hill equation.
(1) Seed 4 ul/well of resuspended frozen HEK293 cells containing 2000 cells in white 1536-well plates for overnight with 1% FBS at 37C under a humidified atmosphere containing 5% CO2 and 95% air.
(2) Add 23 nL compounds in DMSO solution. The final titration was 0.6 nM to 46 uM.
(3) Incubate at 37C for 30 min.
(4) Dispense 0.5uL EGF (25 nM in final)
(5) Incubate at 37C for 5 min.
(6) Dispense 0.5uL of 1:2 diluted 5x lysis buffer.
(7) Incubate at 37C for 10 min.
(8) Dispense 1.5uL of mixture of activation buffer and reaction buffer with AlphaScreen beads (streptavidin donor beads and protein-A acceptor beads, 10 ng/well for each).
(9) Incubate at room temperature for 5 hr.
(10) Detect the assay plate in an EnVision plate reader (PerkinElmer) using the AlphaScreen detection mode.
[…]
Potency is read from the fitted curve at half-maximal effect.

Row | Compound | activity change, negative = inhibition | Potency
1 | CC1(C(=O)O)C=CCN1C(=O)c1ccccc1 (centres undefined) | inactive: -16.8% | 
2 | O=C(NCC1CC1)[C@@H]1C[C@H]1[C@@H](NP(=O)(c1ccccc1)c1ccccc1)c1ccccc1 | inactive: -0.404% | 
3 | CCCCCCCCCCCCC/C=C/[C@@H](O)[C@@H](N)CO | inactive: -19.1% | 
4 | CC1=C(C(=O)O)N2C(=O)[C@@H](NC(=O)C(N)c3ccccc3)[C@H]2SC1 (some centres undefined) | inactive: -5.86% | 
5 | C[C@@H]1OC(OC2CC[C@@]3(C)C(CC[C@@]4(C)C3CC=C3C5CC(C)(C)CC[C@]5(C(=O)OC5OCC(O)[C@@H](O)[C@@H]5OC5O[C@@H](C)[C@H](O[C@H]6OC(CO)C(O)C(O)C6O)C(O)C5O)C(O)C[C@@]34C)C2(C)C)C(O)C(O)[C@H]1OC1OCC(O)C(O)[C@H]1O (some centres undefined) |  | active: 14.1 µM
6 | CC1CCCN(C2=C(NS(=O)(=O)c3ccc(Cl)cc3)C(=O)c3ccccc3C2=O)C1 (centres undefined) |  | active: 10 µM
7 | CN1Cc2c(N)cccc2[C@H](c2ccccc2)C1 | inactive: 2.75% [at 25.7 µM] | 
8 | COc1cccc2c1C(=O)c1c(O)c3c(c(O)c1C2=O)C[C@](O)(C(=O)CO)C[C@H]3O[C@@H]1C[C@H](N)[C@H](O)[C@H](C)O1 | inactive: -1.62% [at 25.7 µM] | 
9 | Clc1ccccc1CN1CCN(/N=C/C=C/c2ccco2)CC1 | inactive: -6.58% [at 57.5 µM] | 
10 | CN1Cc2c(N)cccc2C(c2ccccc2)C1 (centres undefined) |  | inactive
11 | CSc1ccc2c(c1)[C@H](N1CCN(C)CC1)Cc1ccccc1S2 |  | inactive
12 | CCc1ccc(N=c2c([N+](=O)[O-])nn(-c3ccc4c(c3)OCCO4)n2O)cc1 |  | active: 28.2 µM
13 | CC(C)c1ccc2c(c1)c(SC(C)(C)C)c(CC(C)(C)C(=O)O)n2Cc1ccc(Cl)cc1 | inactive: 2.26% | 
14 | CC(C)(C)c1cc(Br)c(O)c(N=Nc2ccc(S(=O)(=O)N3CCOCC3)cc2)c1 |  | active: 25.1 µM
15 | c1ccc(Nc2ncnc3ccc(-c4cccnc4)cc23)cc1 |  | active: 2.51 µM
16 | CC(C)(Sc1ccc(CCN(CCCCC2CCCCC2)C(=O)NC2CCCCC2)cc1)C(=O)O | inactive: -7.76% | 
17 | CC(C)c1ccc2c(c1)CC[C@@H]1[C@@](C)(CN)CCC[C@]21C | inactive: 5.55% | 
18 | OC(CCCN1CCCCC1)(c1ccccc1)c1ccccc1 | inactive: -3.04% [at 25.7 µM] | 
19 | O=C1ON=C(c2ccccc2)/C1=C/c1ccco1 | inactive: 3.45% | 
20 | CC1C/C(=N/Nc2ccc([N+](=O)[O-])cc2[N+](=O)[O-])CC(C)(C)C1 (centres undefined) |  | active: 12.6 µM
21 | CN1CCC(=C2c3ccccc3CC(=O)c3sccc32)CC1 |  | inactive
22 | Oc1ccccc1Nc1nc(NCc2ccco2)c2ccccc2n1 |  | active: 31.6 µM
23 | COc1ccc(N=c2oc3cc(O)ccc3cc2C(=O)Nc2ccccn2)cc1OC |  | active: 28.2 µM
24 | CN1CCc2cccc3c2[C@H]1Cc1ccc(O)c(O)c1-3 | inactive: -5.13% | 
